Measurements from the RNAGym collection of RNA variant scans (doi:10.7554/elife.90254).
Read counts are not given, so values of variants with three or more changes are uncertain.

B1: LINE1-mini (parent)
chain: GGCAGAGCUCAACACAGCGUGGCAAAGUGGCUGUGGCUAGACUGCC

Variants of: B1
Assay: self-cleavage, relative activity (ratio to wild type); higher = more cleavage; in vitro, sequencing; the parent is a self-cleaving ribozyme

Q: Which self-cleavage does the source give for G2A C8G C15G C31A here?
A: 0.09

Q: Which self-cleavage does the source give for G2A C8G C15G U34G here?
A: 0.03

Q: With G2A C8G G19U as the variant, how does the self-cleavage read?
A: 0.06

Q: For G2A C8G U9A A16G U20A C31A C45A, which self-cleavage is on record?
A: 0.02

Q: With G2A C8G U38G as the variant, how does the self-cleavage read?
A: 0.13

Q: Which self-cleavage does the source give for G2A C8U A12U A24G G33A here?
A: 0.03

Q: Which self-cleavage does the source give for G2A C8U A14C A26G C46G here?
A: 0.24

Q: Which self-cleavage does the source give for G2A C8U A14G U34G here?
A: 0.05

Q: With G2A C8U A14U C15G G35C as the variant, how does the self-cleavage read?
A: 0.18

Q: With G2A C8U A14U U20A as the variant, how does the self-cleavage read?
A: 0.27

Q: Which self-cleavage does the source give for G2A C8U A39C G40U here?
A: 0.06

Q: With G2A C8U C13U G36U A41G as the variant, how does the self-cleavage read?
A: 0.03

Q: Which self-cleavage does the source give for G2A C8U C15U A26G U28G here?
A: 0.19

Q: With G2A C8U C15U G19C A25C C37A as the variant, how does the self-cleavage read?
A: 0.24

Q: Which self-cleavage does the source give for G2A C8U C18G G33A C37U here?
A: 0.05

Q: For G2A C8U G27A G35U, which self-cleavage is on record?
A: 0.6

Q: Which self-cleavage does the source give for G2A C8U G35U here?
A: 0.88

Q: For G2A C8U G44U, which self-cleavage is on record?
A: 0.05

Q: Which self-cleavage does the source give for G2A C8U U9A A16U here?
A: 0.69

Q: With G2A C10A A12G C18A G36U as the variant, how does the self-cleavage read?
A: 0.04

Q: For G2A C10A A14G C31G C42G, which self-cleavage is on record?
A: 0.01

Q: Which self-cleavage does the source give for G2A C10A A16C G27C here?
A: 0.03

Q: Which self-cleavage does the source give for G2A C10A C13G G17A U20G G21A A26C here?
A: 0.03

Q: For G2A C10A C15A G17C, which self-cleavage is on record?
A: 0.08

Q: With G2A C10A C37U as the variant, how does the self-cleavage read?
A: 0.02

Q: With G2A C10A C45U as the variant, how does the self-cleavage read?
A: 0.13

Q: For G2A C10A G17A C23U, which self-cleavage is on record?
A: 0.06

Q: Which self-cleavage does the source give for G2A C10A G17C G30C C31A U43A here?
A: 0.02

Q: Which self-cleavage does the source give for G2A C10A G21C A25U C45U here?
A: 0.02

Q: With G2A C10A G21U A24G U38C as the variant, how does the self-cleavage read?
A: 0.17

Q: Which self-cleavage does the source give for G2A C10A G22C G29U G33C G44C C45A here?
A: 0.01

Q: With G2A C10A G27U G33U as the variant, how does the self-cleavage read?
A: 0.03

Q: For G2A C10A G30C C42G, which self-cleavage is on record?
A: 0.02

Q: With G2A C10A G36A C42G as the variant, how does the self-cleavage read?
A: 0.04

Q: Which self-cleavage does the source give for G2A C10A G36C A41C C45G here?
A: 0.01

Q: Which self-cleavage does the source give for G2A C10A G36U U38A C46U here?
A: 0

Q: Which self-cleavage does the source give for G2A C10A G40C A41U here?
A: 0.02

Q: Which self-cleavage does the source give for G2A C10G A25C C31G G35C C42A U43G C45A here?
A: 0

Q: For G2A C10G C13G G29U, which self-cleavage is on record?
A: 0.04

Q: For G2A C10G C13U G21C, which self-cleavage is on record?
A: 0.02

Q: For G2A C10G C15A U28G, which self-cleavage is on record?
A: 0.02

Q: For G2A C10G G17C G44A, which self-cleavage is on record?
A: 0.43

Q: With G2A C10G G22A A39C C45A as the variant, how does the self-cleavage read?
A: 0.03

Q: For G2A C10G G44C, which self-cleavage is on record?
A: 0.1

Q: For G2A C10G U20G G40C, which self-cleavage is on record?
A: 0.01

Q: With G2A C10U A14U C15U G21A G35U as the variant, how does the self-cleavage read?
A: 0.08

Q: Which self-cleavage does the source give for G2A C10U C18A G40A here?
A: 0.07

Q: For G2A C10U C23A U38A, which self-cleavage is on record?
A: 0.02

Q: Which self-cleavage does the source give for G2A C10U C37A A39U here?
A: 0.08

Q: For G2A C10U G17U G29C C37A, which self-cleavage is on record?
A: 0.03

Q: For G2A C10U G22A G36C G40C, which self-cleavage is on record?
A: 0.05

Q: For G2A C10U U20C G29A, which self-cleavage is on record?
A: 0.08

Q: For G2A C10U U34G, which self-cleavage is on record?
A: 0.11

Q: For G2A C13A A39U, which self-cleavage is on record?
A: 0.51

Q: With G2A C13A G19U as the variant, how does the self-cleavage read?
A: 0.05

Q: With G2A C13A G21U G35C C37A as the variant, how does the self-cleavage read?
A: 0.29

Q: Which self-cleavage does the source give for G2A C13A G27C U32G U34A here?
A: 0.05

Q: With G2A C13A G30U C31G G33U C42U as the variant, how does the self-cleavage read?
A: 0.17

Q: Which self-cleavage does the source give for G2A C13A G35C here?
A: 0.11

Q: For G2A C13A U20A G22U G40A, which self-cleavage is on record?
A: 0.1

Q: For G2A C13G A14G C15U A16U G21U U32A C46A, which self-cleavage is on record?
A: 0.32

Q: With G2A C13G C15U U20A U34A U38G C42U as the variant, how does the self-cleavage read?
A: 0.39

Q: With G2A C13G C23A G35C as the variant, how does the self-cleavage read?
A: 0.73

Q: With G2A C13G G17A C45A as the variant, how does the self-cleavage read?
A: 0.19

Q: For G2A C13G G17A G19C, which self-cleavage is on record?
A: 0.34

Q: With G2A C13G G19A as the variant, how does the self-cleavage read?
A: 0.09

Q: With G2A C13G U20C C46A as the variant, how does the self-cleavage read?
A: 0.12

Q: For G2A C13U A24C, which self-cleavage is on record?
A: 0.85

Q: With G2A C13U A41C C46G as the variant, how does the self-cleavage read?
A: 0.19

Q: Which self-cleavage does the source give for G2A C13U C15U G19C G30U C37U U38A here?
A: 0.08

Q: With G2A C13U G17U G22U U43C as the variant, how does the self-cleavage read?
A: 0.26

Q: With G2A C13U G19A U34A as the variant, how does the self-cleavage read?
A: 0.66

Q: With G2A C13U G19C G21A A25G as the variant, how does the self-cleavage read?
A: 1.46

Q: With G2A C13U G19U C23A U32A as the variant, how does the self-cleavage read?
A: 0.28

Q: For G2A C13U G21A C23G G29C G33U C37A C46U, which self-cleavage is on record?
A: 0.2

Q: For G2A C15A A25U G30U, which self-cleavage is on record?
A: 0.32

Q: Which self-cleavage does the source give for G2A C15A C45G here?
A: 0.21

Q: For G2A C15A G21U G44A, which self-cleavage is on record?
A: 0.03

Q: Which self-cleavage does the source give for G2A C15A G27A C31G G40A here?
A: 0.17

Q: Which self-cleavage does the source give for G2A C15A G29C U34A here?
A: 0.2

Q: For G2A C15A G30U, which self-cleavage is on record?
A: 0.27

Q: For G2A C15G G22U, which self-cleavage is on record?
A: 0.04

Q: With G2A C15G G44C as the variant, how does the self-cleavage read?
A: 0.03

Q: With G2A C15U C31A as the variant, how does the self-cleavage read?
A: 0.34
